Measured values: PubChem BioAssay AID624296 (National Center for Advancing Translational Sciences (NCATS), 2012)
The campaign covered roughly 350,000 compounds. About 9,900 (2.8%) were called active. Inconclusive means that the source gave no clear call. Such entries were picked first, then a sample of the others. The call rests on the fitted dose curve; in most records, active means well fitted activation curve with a large enough effect; inconclusive means small, poorly fitted or top-dose-only effect; inactive means no such curve, though single readings can be large or run the other way. No potency is given beside an inconclusive call; the fits are too rough.

Assay: A quantitative high throughput screen for small molecules that induce DNA re-replication in MCF 10a normal breast cells. Further: nearly all actives have a fitted effect of over 50% in size.
Conditions: MCF 10A DNA re-replication, Hoechst nuclear intensity, 48 h; series mostly up to 46.1 µM
Potency means the concentration at half of the fitted maximal effect; tags describe the fitted curve by direction and shape.

Row | SMILES | Potency
1 | COc1ccc(C23CC4CC(CC(C(=O)O)(C4)C2)C3)c(F)c1 | inactive
2 | COc1cc(=O)n(C)c2c(OCC3OC(C)(C)OC3(C)C)cccc12 (centres undefined) | inconclusive [activator, full curve, poor fit]
3 | CCOc1ccc(CN2CCN(Cc3cccc4nonc34)CC2CCO)cc1 (centres undefined) | inconclusive [activator, partial curve, poor fit]
4 | CCn1c(/C=C/N(C)c2ccccc2)[n+](CC)c2ccc(Cl)cc21 | inactive
5 | Cc1cccc(-c2noc(CCCOc3ccc(Cl)cc3Cl)n2)c1 | inconclusive [activator, full curve, poor fit]
6 | COc1ccc2nc(NC(=O)Nc3cccc4ccccc34)sc2c1 | active: 9.2 µM
7 | CC1CCCN(C(=O)c2ccc3c(=O)n(Cc4ccc5c(c4)OCO5)c(=S)[nH]c3c2)C1 (centres undefined) | inconclusive [activator, partial curve, poor fit]
8 | CCOC(=O)C1CCN(C(=O)c2oc3ccc(S(=O)(=O)N4CC(C)CC(C)C4)cc3c2C)CC1 (centres undefined) | inactive
9 | CCOC(=O)c1c(-c2ccccc2Cl)cn2ccccc12 | inactive
10 | CCC(CC)COC(=O)C(C#N)c1nc2ccccc2nc1N1CCOCC1 (centres undefined) | inconclusive [activator, single point]
11 | O=C(Nc1ccc(Cl)cc1)N(Cc1nc2ccccc2c(=O)[nH]1)Cc1cccs1 | inconclusive [activator, single point]
12 | COc1ccc(NS(=O)(=O)c2cc(OC)ccc2OC)cc1 | inactive
13 | CCS(=O)(=O)Nc1cccc(C2=NN(C(=O)c3ccco3)C(c3ccco3)C2)c1 (centres undefined) | active: 13 µM
14 | Cc1cc(OC(C)C(=O)NCC2CCC(C(=O)O)CC2)c2c(C)c(C)c(=O)oc2c1 (centres undefined) | inconclusive [activator, partial curve]
15 | CCn1c(/C=C/c2ccccc2)nc2ccccc21 | inconclusive [activator, single point]
16 | CCNC(=S)N/N=C1\CCCCc2ccccc21 | inactive
17 | COc1ccc(S(=O)(=O)NNC(=O)c2cc3c4ccccc4n(C)c3s2)cc1 | inactive
18 | Nc1nc2ccc([N+](=O)[O-])cc2[nH]1 | inactive
19 | CCn1c(=O)c(C(=O)NNC(=O)c2ccc(Cl)cc2Cl)c(O)c2ccccc21 | inconclusive [activator, single point]
20 | CC(C)(C)C(=O)NC(=S)NCc1ccccc1 | inactive
21 | CCOc1ccc(N(CC(=O)NC2CCCC2)S(=O)(=O)c2c(C)noc2C)cc1 | inconclusive [activator, single point]
22 | CC(C)(C)SCCNS(=O)(=O)c1ccc(Cl)cc1 | inconclusive [activator, partial curve, poor fit]
23 | CC(=O)N(C(C)=O)n1c(/C=C/c2ccc([N+](=O)[O-])cc2)nc2ccccc2c1=O | inconclusive [activator, single point]

Row | SMILES | Potency
24 | CCCCc1cc(=O)oc2cc(C)cc(OC(C)C(=O)NC(Cc3c[nH]c4ccc(O)cc34)C(=O)O)c12 (centres undefined) | inconclusive [activator, full curve, poor fit]
25 | Cc1ccc(Cl)c2sc(N3CCN(C(=O)c4ccco4)CC3)nc12 | inconclusive [activator, single point]
26 | Cc1cc(N2CCN(C(=O)c3ccco3)CC2)n2nc(-c3cccc(Cl)c3)cc2n1 | inconclusive [activator, single point]
27 | CCOC(=O)/C(=N\Nc1cc(Cl)ccc1Cl)N1CCN(CC)CC1 | inconclusive [activator, single point]
28 | COc1ccc(C(=O)/C=C/C(=O)N(CC(=O)NC2CCCCC2)CC2CCCO2)c(O)c1 (centres undefined) | active: 11.6 µM
29 | CC(C)C(=O)Nc1nnc(S(=O)(=O)N2CCCc3ccccc32)s1 | inconclusive [activator, single point]
30 | Cc1ccc(OCC(=O)Nc2nc(-c3ccccn3)cs2)c(C)c1 | inconclusive [activator, partial curve, poor fit]
31 | O=C(/C=C/c1ccc2c(c1)OCO2)NCCSCc1ccc(Cl)cc1 | inconclusive [activator, single point]
32 | COc1ccccc1NC(CC(=O)c1ccccc1)C(=O)OCC(=O)c1ccc(C)cc1 (centres undefined) | inconclusive [activator, single point]
33 | C=CCn1c(SCC(=O)N2CCOCC2)nc2sc(CC)cc2c1=O | inactive
34 | O=C(NCc1cccnc1)c1ccccc1[N+](=O)[O-] | inactive
35 | COc1ccc(CN(C)C(=O)c2ccc(COc3ccccc3)cc2)c(OC)c1 | inconclusive [activator, partial curve, poor fit]
36 | CC(C)CCNC(=O)C1CCN(Cc2cccc(OCc3ccccc3)c2)CC1 | inconclusive [activator, single point]
37 | COc1ccc(CCNc2ccc(C(CC(N)=O)NC(=O)c3ccc(Br)cc3)cc2[N+](=O)[O-])cc1 (centres undefined) | inconclusive [activator, partial curve, poor fit]
38 | CCc1ccc2[nH]c(=O)c(CN(CCN(CC)CC)C(=O)NC3CCCCC3)cc2c1 | inconclusive [activator, single point]
39 | Cc1sc2nc(SC(C)C)nc(N)c2c1C | inconclusive [activator, single point]
40 | Cc1ccccc1C(=O)NNC(=S)Nc1cccc(C(F)(F)F)c1 | inconclusive [activator, full curve, poor fit]
41 | COc1ccc(OC)c(NC(=O)COC(=O)CCc2ccc(S(=O)(=O)N3CCOCC3)cc2)c1 | inactive
42 | COC(=O)c1cccc(NC(=O)CCc2ccccc2)c1 | inactive
43 | COc1ccc(-c2cc(C(=O)N3CCN(c4ccccc4OC)CC3)no2)cc1 | inconclusive [activator, single point]
44 | COc1ccccc1NC(=O)c1cc(Cl)nnc1Cl | inconclusive [activator, single point]
45 | CCc1ccccc1Cn1c(=O)oc2cccnc21 | inactive
46 | COc1ccc(N=Nc2cc(C)c(O)c(CN3CCCCC3)c2)cc1 | inconclusive [activator, single point]

Row | SMILES | Potency
47 | COCCSc1nnc(NC(=O)CCS(=O)(=O)c2ccccc2)s1 | inconclusive [activator, single point]
48 | Cc1cc(NC(=O)CSc2nc3ccccc3c(=O)n2C2CCCC2)no1 | active: 1.3 µM
49 | O=C(O)CC/C(=C\c1cc2c(cc1Br)OCO2)c1nc2ccccc2s1 | inconclusive [activator, single point]
50 | CCCC(=O)NC(c1ccc(Cl)cc1Cl)c1ccc2cccnc2c1O (centres undefined) | inconclusive [activator, single point]
51 | Cc1cnc(C(=O)Nc2cccc3cccnc23)cn1 | inconclusive [activator, partial curve]
52 | CCc1nnc(N/N=C/c2ccc(N3CCC(C)CC3)c([N+](=O)[O-])c2)n1N | inconclusive [activator, single point]
53 | N#Cc1c(C(F)(F)F)cc(-c2cccs2)nc1SC(C(=O)O)c1ccccc1 (centres undefined) | active: 20.6 µM
54 | O=C(CCN1C(=O)/C(=C/c2ccccc2F)SC1=S)NC1C=CS(=O)(=O)C1 (centres undefined) | inconclusive [activator, single point]
55 | O=C(N/N=C1\CCc2ccccc21)c1ccccc1Cl | inactive
56 | Cc1ccc(CNC(=O)[C@H](C)N2C(=O)N3CCc4c([nH]c5ccccc45)[C@@]3(C)C2=O)cc1 | inconclusive [activator, single point]
57 | C[C@@H](C(=O)NCc1ccccn1)[C@@H]1C[C@@]1(C)[C@@H](NC(=O)OCc1ccccc1)c1ccccc1 | inactive
58 | Cc1ccccc1OCCN1CCC(Cc2ccccc2)CC1 | inconclusive [activator, single point]
59 | C[C@@H]1CN(S(=O)(=O)C(C)(C)C)[C@H](CCO)/C1=C\c1ccccc1 | inconclusive [activator, partial curve, poor fit]
60 | CCOC(=O)/C(=N/Nc1ccccc1)Sc1nnnn1-c1ccc(C)cc1 | inconclusive [activator, single point]
61 | CCN(CC)c1ccc(/C=N/NC(=O)c2ccc(Br)o2)cc1 | inconclusive [activator, single point]
62 | CCOC(=O)N1C(=O)[C@@](c2ccc(Cl)cc2)(C(C)C)N1C(=O)OCC | active: 20.6 µM
63 | O=C(NCC(c1ccco1)N1CCN(c2ccccc2F)CC1)C(=O)NC1CCCCC1 (centres undefined) | inactive
64 | O=C(CC1SC(N2CCCC2)=NC1=O)Nc1ccc(C(=O)N2CCN(c3cccc(Cl)c3)CC2)cc1 (centres undefined) | inactive
65 | COc1ccc(NC(=O)C/C(C)=N/NC(=O)c2cccs2)c([N+](=O)[O-])c1 | inactive
66 | O=[N+]([O-])c1cccc(COc2cccc(CN3CCOCC3)c2)c1 | inconclusive [activator, single point]
67 | O=C(c1ccc(Br)cc1)c1cc([N+](=O)[O-])ccc1N1CCCCC1 | inconclusive [activator, full curve, poor fit]
68 | Nc1ccc2c(c1)sc1ccccc12 | inconclusive [activator, single point]
69 | Cc1ccc(-n2nnc3c(SCC(=O)NCc4ccco4)ncnc32)cc1 | active: 23.1 µM
